{
  "source": "paper PMC4336329",
  "about": "(PLoS ONE, 2015)",
  "note": "Screen size: about 310,000 compounds; about 14,000 (4.5%) showed an effect of 50% or more. Effects have a minus sign here. Some of the results follow.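 Further: peak tail current of the secondary pulse compared with the same well before compound.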",
  "data": [
    {"molecular_target": "human ether-à-go-go-related gene (hERG) potassium channel (human, UniProt Q12809)", "sequence (Q12809 whole entry, looked up)": "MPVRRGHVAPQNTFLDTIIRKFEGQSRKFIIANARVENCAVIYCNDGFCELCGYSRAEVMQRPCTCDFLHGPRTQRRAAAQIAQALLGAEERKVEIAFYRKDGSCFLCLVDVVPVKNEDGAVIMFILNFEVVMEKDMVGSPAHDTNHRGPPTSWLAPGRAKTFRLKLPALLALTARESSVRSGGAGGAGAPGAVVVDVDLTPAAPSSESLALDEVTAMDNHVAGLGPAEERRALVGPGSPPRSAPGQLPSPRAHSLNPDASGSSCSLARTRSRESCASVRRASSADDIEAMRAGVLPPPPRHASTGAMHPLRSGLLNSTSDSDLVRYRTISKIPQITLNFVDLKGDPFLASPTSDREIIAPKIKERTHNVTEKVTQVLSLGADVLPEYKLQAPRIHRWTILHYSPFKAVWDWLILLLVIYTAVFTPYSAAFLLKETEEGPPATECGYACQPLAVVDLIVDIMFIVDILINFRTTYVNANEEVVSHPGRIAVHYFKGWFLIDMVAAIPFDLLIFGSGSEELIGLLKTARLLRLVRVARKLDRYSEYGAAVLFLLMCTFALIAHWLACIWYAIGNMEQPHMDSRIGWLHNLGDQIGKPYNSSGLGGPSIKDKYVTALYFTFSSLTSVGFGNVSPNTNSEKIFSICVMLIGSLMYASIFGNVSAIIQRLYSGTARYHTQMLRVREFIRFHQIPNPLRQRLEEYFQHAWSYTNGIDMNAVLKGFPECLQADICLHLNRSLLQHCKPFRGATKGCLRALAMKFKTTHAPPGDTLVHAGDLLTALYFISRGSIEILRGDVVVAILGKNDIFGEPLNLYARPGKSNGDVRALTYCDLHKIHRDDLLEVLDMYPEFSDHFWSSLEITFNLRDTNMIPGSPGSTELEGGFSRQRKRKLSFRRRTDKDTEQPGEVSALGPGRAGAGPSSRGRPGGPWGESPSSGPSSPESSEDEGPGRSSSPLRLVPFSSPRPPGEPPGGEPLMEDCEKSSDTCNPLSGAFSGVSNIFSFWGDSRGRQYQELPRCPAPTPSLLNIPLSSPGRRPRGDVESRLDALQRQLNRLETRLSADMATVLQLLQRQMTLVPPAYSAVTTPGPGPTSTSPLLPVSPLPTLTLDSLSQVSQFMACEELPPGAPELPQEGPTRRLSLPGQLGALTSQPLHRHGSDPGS", "experiment": "primary screen, population patch clamp on CHO cells stably expressing hERG", "units": {"hERG current change (%, negative = inhibition) at 10uM": "%"}, "values": [
      {"smiles": "CCC(C)NC(=O)c1cc(S(=O)(=O)N2CCCCC2)c[nH]1", "note": "(stereo not shown)", "hERG current change (%, negative = inhibition) at 10uM": 34},
      {"smiles": "CCOc1cc(N2CCOCC2)c(OCC)cc1NC(=O)c1cc(C)cc(C)c1", "hERG current change (%, negative = inhibition) at 10uM": 7.45},
      {"smiles": "CCCCNCc1cc(Br)c(OCc2cccs2)c(OC)c1.Cl", "hERG current change (%, negative = inhibition) at 10uM": -33.7},
      {"smiles": "Cc1ccc(NC(=O)c2cc(=O)c3ccccc3o2)cc1", "hERG current change (%, negative = inhibition) at 10uM": 15.6},
      {"smiles": "CCCC12CN3CC(C)(CN(C1)C3c1cccs1)C2=O", "note": "(stereo not shown)", "hERG current change (%, negative = inhibition) at 10uM": -7.68},
      {"smiles": "NC(=O)C1CCN(c2ncc(C(F)(F)F)cc2Cl)CC1", "hERG current change (%, negative = inhibition) at 10uM": 8.42},
      {"smiles": "COc1cccc(OC)c1C(=O)OCC(=O)NCCCc1ccccc1", "hERG current change (%, negative = inhibition) at 10uM": -2.98},
      {"smiles": "COC(=O)C1=NN(N=O)C2(CC(=O)N(c3cc(C)cc(C)c3)C2=O)C1", "note": "(stereo not shown)", "hERG current change (%, negative = inhibition) at 10uM": -3.76},
      {"smiles": "O=C1CC(=O)Nc2cc(S(=O)(=O)NCc3cccs3)ccc2N1", "hERG current change (%, negative = inhibition) at 10uM": 14.2},
      {"smiles": "Cc1cc(C(=O)Nc2nnc(C(F)(F)F)s2)cs1", "hERG current change (%, negative = inhibition) at 10uM": -6.9},
      {"smiles": "CC(C)Oc1ccc(Cl)cc1Nc1nc(NCCO)nc(N2CCCC2)n1", "hERG current change (%, negative = inhibition) at 10uM": 2.23},
      {"smiles": "Cc1ccc(-n2ncc3c(Nc4cccc(C(=O)O)c4)ncnc32)cc1", "hERG current change (%, negative = inhibition) at 10uM": 16.4},
      {"smiles": "COc1ccccc1Cn1nc(C(=O)O)c2ccccc2c1=O", "hERG current change (%, negative = inhibition) at 10uM": 20.1},
      {"smiles": "COc1ccc(-c2nnc(-c3ccc(F)cc3)o2)cc1", "hERG current change (%, negative = inhibition) at 10uM": 14.2},
      {"smiles": "CCCSc1nc(O)c(C2OC(=O)c3c2ccc(OC)c3OC)c(=O)n1-c1ccccc1", "note": "(stereo not shown)", "hERG current change (%, negative = inhibition) at 10uM": 30.5},
      {"smiles": "CCc1nnc(NC(=O)Cc2cc(OC)c(OC)c(OC)c2)s1", "hERG current change (%, negative = inhibition) at 10uM": 17.2},
      {"smiles": "Cc1ccccc1C(=O)Nc1nncs1", "hERG current change (%, negative = inhibition) at 10uM": 17.8},
      {"smiles": "O=C(NCCCSc1ccccc1)c1cc(Cl)ccc1O", "hERG current change (%, negative = inhibition) at 10uM": 8.27},
      {"smiles": "CC(=O)c1ccc(NC(=O)CSc2nnc(-c3ccoc3C)n2Cc2ccccc2)cc1", "hERG current change (%, negative = inhibition) at 10uM": -30.8},
      {"smiles": "CC(C)(C)C(=O)NC(n1cnc2c(N3CCOCC3)ncnc21)C(Cl)(Cl)Cl", "note": "(stereo not shown)", "hERG current change (%, negative = inhibition) at 10uM": 2.02},
      {"smiles": "COc1cc(C(=O)NCc2cccc3ccccc23)ccc1OCc1ccccc1", "hERG current change (%, negative = inhibition) at 10uM": 14},
      {"smiles": "CCC(C)C(=O)Nc1nnc(CCc2ccccc2)s1", "note": "(stereo not shown)", "hERG current change (%, negative = inhibition) at 10uM": 0.562},
      {"smiles": "Cn1ncc(Cl)c1C(=O)N/N=C/c1cccc(OC2CSC2)c1", "hERG current change (%, negative = inhibition) at 10uM": 8.77},
      {"smiles": "O=C(CN1CCc2cc3c(cc2C1)OCCCO3)Nc1ccc(F)cc1", "hERG current change (%, negative = inhibition) at 10uM": 15},
      {"smiles": "O=C(NCc1ccccc1)C1=C[C@@H](C2CCCCC2)C[C@@H](OCc2ccc(CO)cc2)O1", "hERG current change (%, negative = inhibition) at 10uM": 1.59},
      {"smiles": "CC(=O)Nc1cccc(C(=O)OCCCOc2ccc(F)cc2)c1", "hERG current change (%, negative = inhibition) at 10uM": 18.8},
      {"smiles": "CNC[C@H](NC[C@@H](NCCCc1ccccc1)c1ccccc1)[C@H](C)O", "hERG current change (%, negative = inhibition) at 10uM": 11.7},
      {"smiles": "COc1ccc(Cc2nc(-c3cccnc3)no2)cc1OC", "hERG current change (%, negative = inhibition) at 10uM": 29.8},
      {"smiles": "COc1ccccc1NC(=O)c1cnc(SCC(=O)NCCc2ccccc2)n(C)c1=O", "hERG current change (%, negative = inhibition) at 10uM": -5.15},
      {"smiles": "CC(C)(C)N(Cc1cc2ccccc2[nH]c1=O)C(=O)c1cccnc1", "hERG current change (%, negative = inhibition) at 10uM": -11.8},
      {"smiles": "NNC(=O)CSCc1ccc(Cl)cc1Cl", "hERG current change (%, negative = inhibition) at 10uM": -2},
      {"smiles": "O=C(CSc1nc2ccccc2n1CCc1ccccc1)NC1CCS(=O)(=O)C1", "note": "(stereo not shown)", "hERG current change (%, negative = inhibition) at 10uM": -1.96},
      {"smiles": "CCNC(=O)NC(=O)C(C)OC(=O)C1CCN(S(=O)(=O)c2ccccc2C(=O)OC)CC1", "note": "(stereo not shown)", "hERG current change (%, negative = inhibition) at 10uM": 20.7},
      {"smiles": "COc1ccc(/C=N/NC(=O)Cn2nc([N+](=O)[O-])cc2C)c(OC)c1OC", "hERG current change (%, negative = inhibition) at 10uM": 14.2},
      {"smiles": "CCOC(=O)c1c(C)n(COCCO)c2ccc(O)cc12", "hERG current change (%, negative = inhibition) at 10uM": 20.4},
      {"smiles": "COc1ccc(NC(=O)CSc2nc3c(sc4ccccc43)c(=O)n2CCCN2CCCC2)cc1", "hERG current change (%, negative = inhibition) at 10uM": -30.8},
      {"smiles": "CCOC(=O)C1=C(Cn2cnc3ccccc32)NC(=O)NC1c1cc(C)ccc1C", "note": "(stereo not shown)", "hERG current change (%, negative = inhibition) at 10uM": -13.9},
      {"smiles": "COc1ccccc1N1CCN(C(=O)CSc2ncnc3c2cnn3-c2ccc(C)c(C)c2)CC1", "hERG current change (%, negative = inhibition) at 10uM": 0.787},
      {"smiles": "NC(=O)c1nc(C(=O)N2CCN(c3ccccc3)CC2)c2ccccc2n1", "hERG current change (%, negative = inhibition) at 10uM": 2.14},
      {"smiles": "COC(=O)Nc1ccc(S(=O)(=O)N2CCCc3cccc(O)c32)cc1", "hERG current change (%, negative = inhibition) at 10uM": 40.2},
      {"smiles": "CN(C)CCNc1nc2c(c(=O)[nH]c(=O)n2C)n1CC(O)COc1ccc(Cl)cc1", "note": "(stereo not shown)", "hERG current change (%, negative = inhibition) at 10uM": -20},
      {"smiles": "COc1ccc(N2CCN(CC(O)COC(c3ccc(F)cc3)c3ccc(F)cc3)CC2)cc1.O=C(O)C(=O)O", "note": "(stereo not shown)", "hERG current change (%, negative = inhibition) at 10uM": -81.6},
      {"smiles": "COc1ccc(CNC(=O)c2cccc(S(=O)(=O)N3CCCCC3)c2)cc1OC", "hERG current change (%, negative = inhibition) at 10uM": 4.35}
    ]}
  ]
}
